Test results reported in PubChem BioAssay AID588342 (National Center for Advancing Translational Sciences (NCATS), 2011).
The whole screen tested about 360,000 compounds, of which about 25,000 (6.9%) were called active. The shares of active, inactive and inconclusive entries below differ from those in the screen. The call rests on the fitted dose curve; in most records, active means well fitted inhibition curve with a large enough effect; inconclusive means small, poorly fitted or top-dose-only effect; inactive means flat fitted curve, though single readings scatter. Potencies of inconclusive entries are doubtful fits and often do not repeat.

Molecular target: Luciferin 4-monooxygenase (Photinus pyralis) (UniProt P08659)
Assay: qHTS profiling assay for firefly luciferase inhibitor/activator using purifed enzyme and Km concentrations of substrates (counterscreen for miR-21 project); further: nearly all actives have a fitted effect of over 55% in size
Settings: purified FLuc, luminescence inhibition; series mostly up to 57.5 µM
Procedure, shortened: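 Biochemical qHTS of compounds, final roughly 60 µM downward over six points, against 10 nM purified firefly luciferase using Km concentrations of substrates (10 uM D-luciferin, 10 uM ATP) in Tris acetate pH 7.5 buffer; luminescence output.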
Potency means the concentration at half of the fitted maximal effect; tags describe the fitted curve by direction and shape.

Chain of UniProt P08659 (P08659 whole entry, looked up): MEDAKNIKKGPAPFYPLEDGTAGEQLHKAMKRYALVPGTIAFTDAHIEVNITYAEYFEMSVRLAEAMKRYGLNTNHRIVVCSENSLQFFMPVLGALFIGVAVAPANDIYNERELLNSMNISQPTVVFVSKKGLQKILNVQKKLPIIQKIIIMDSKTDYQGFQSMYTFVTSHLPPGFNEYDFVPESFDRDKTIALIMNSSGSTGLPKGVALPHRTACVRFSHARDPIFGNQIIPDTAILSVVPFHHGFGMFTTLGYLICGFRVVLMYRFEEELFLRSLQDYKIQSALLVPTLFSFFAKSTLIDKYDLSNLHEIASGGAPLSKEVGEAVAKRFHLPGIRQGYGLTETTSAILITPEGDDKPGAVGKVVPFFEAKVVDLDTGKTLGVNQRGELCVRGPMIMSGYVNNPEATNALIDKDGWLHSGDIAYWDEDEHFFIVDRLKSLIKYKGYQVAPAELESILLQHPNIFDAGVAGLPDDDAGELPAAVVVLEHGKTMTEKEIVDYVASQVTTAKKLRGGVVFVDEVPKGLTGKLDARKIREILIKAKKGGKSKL

| SMILES | Potency |
| --- | --- |
| COc1ccc(C)cc1NC(=O)Nc1cccc(OCc2cc(=O)n3ccc(C)cc3n2)c1 | active: 2.69 µM |
| COc1ccc(/C=C2\SC(=S)N(CCC(=O)Nc3cccc(C(=O)O)c3)C2=O)cc1OC | active: 6.75 µM |
| CCOC(=O)c1ccc(-n2c(CCC(=O)O)ccc2-c2ccccc2)cc1 | inconclusive: 13.5 µM [inhibitor, partial curve] |
| O=C1Nc2ccccc2S/C1=C/c1cccs1 | inconclusive: 5.36 µM [inhibitor, partial curve] |
| O=C1CCCN1C(=O)CSc1ncnc2sccc12 | inconclusive: 15.1 µM [inhibitor, partial curve] |
| COc1ccc2cc(C(=O)NCc3ccccc3)c(=O)oc2c1 | inconclusive: 1.69 µM [inhibitor, full curve] |
| COc1ccccc1N1CCN(C(=O)Nc2cccc(C)c2)CC1 | inconclusive: 26.9 µM [inhibitor, single point] |
| COc1ccc(NC(=O)c2cccs2)cc1NC(=O)c1ccco1 | inconclusive: 23.9 µM [inhibitor, single point] |
| Cc1cccc(N2CCN(c3cc(C)nc4nnnn34)CC2C)c1 (stereo unspecified) | inactive |
| Cc1ccc(NC(=O)c2oc3ccc4c(c3c2C)C(=O)CC(C)(C)O4)c(C)c1 | active: 4.26 µM |
| Cc1ccc(-c2noc(-c3ccc(N4CCN(C)CC4)c([N+](=O)[O-])c3)n2)cc1 | inconclusive: 10.7 µM [inhibitor, partial curve, poor fit] |
| CC(=O)c1cnn(-c2cc(Oc3ccccc3C)ncn2)c1C | inconclusive: 21.3 µM [inhibitor, partial curve, poor fit] |
| OC1=C(O)c2nc3cc(C(F)(F)F)ccc3nc21 | inconclusive: 21.3 µM [inhibitor, single point] |
| O=C(CSc1n[nH]c(-c2ccc(F)cc2)n1)NCc1ccccc1Cl | inconclusive: 37.9 µM [inhibitor, partial curve, poor fit] |
| O=C(/C=C/c1ccc([N+](=O)[O-])cc1)NCc1ccco1 | inconclusive: 23.9 µM [inhibitor, partial curve] |
| COc1ccc(/C=N/NC(=O)OC(C)(C)C)cc1OC | inconclusive: 26.9 µM [inhibitor, single point] |
| CCC1(c2ccccc2)NC(=O)N(CC(=O)N(C)Cc2c(F)cccc2Cl)C1=O (stereo unspecified) | inactive |
| CC(C)N1CN=C(Nc2nc3ccccc3o2)NC1 | inconclusive: 23.9 µM [inhibitor, partial curve, poor fit] |
| CCOc1ccccc1N1CCN(C(=O)c2cn(CC3CCCCC3)nn2)CC1 | inconclusive: 26.9 µM [inhibitor, single point] |
| Cc1ccc(C(=O)NCC(=O)Nc2ncccc2C)s1 | inactive |
| COc1cccc(C(=O)OCC(=O)c2c[nH]c3ccccc23)c1O | active: 19 µM |
| Cc1cc2cc(CNC(=O)c3cccs3)ccc2[nH]1 | inconclusive: 13.5 µM [inhibitor, partial curve, poor fit] |
| Cc1cccc(OC(=O)c2cc(-c3ccc(C)c(C)c3)on2)c1 | inconclusive: 9.53 µM [inhibitor, partial curve, poor fit] |
| COc1ccc(Cl)cc1NC(=S)N(Cc1ccc(C(=O)O)cc1)Cc1ccc(OC)c(OC)c1 | inconclusive: 26.9 µM [inhibitor, partial curve, poor fit] |

| SMILES | Potency |
| --- | --- |
| O=C(Nc1cccn(Cc2ccccc2)c1=O)NC1CCCCC1 | inconclusive: 21.3 µM [inhibitor, single point] |
| N#CCc1nc(CSc2nc3ccccc3o2)cs1 | active: 23.9 µM |
| COc1nc2ccc(C)cc2cc1-c1noc(-c2ccccc2)n1 | inconclusive: 23.9 µM [inhibitor, partial curve, poor fit] |
| O=C(Nc1ccc(F)cc1)Nc1ccccc1NS(=O)(=O)c1cccs1 | inconclusive: 26.9 µM [inhibitor, single point] |
| CCSc1nsc(NC(=O)Nc2cccc(OC)c2)n1 | active: 21.3 µM |
| O=C(NNC(=S)Nc1ccccc1)c1cccc(Br)c1 | inconclusive: 33.8 µM [inhibitor, single point] |
| COc1ccc([N+](=O)[O-])cc1NC(=O)CSc1ccc2ccccc2c1 | inconclusive: 12 µM [inhibitor, partial curve] |
| Cc1cc(Cl)c(S(=O)(=O)NC2CCCC2)cc1OCC(=O)NC1CCCCC1 | inactive |
| CC(C)COc1ccc(C(=O)OCCN2CCCCC2)cc1 | inconclusive: 30.1 µM [inhibitor, partial curve, poor fit] |
| CCOCCCNC(=O)C(c1ccccc1)N1Cc2ccccc2C1=O (stereo unspecified) | inactive |
| CSCCC(NS(=O)(=O)c1ccc(C)c(C(=O)O)c1)C(=O)O (stereo unspecified) | inactive |
| O=C(O)c1cc2c(N3CCC(Cc4ccccc4)CC3)ncnc2s1 | inconclusive: 37.9 µM [inhibitor, single point] |
| O=C(Nc1sc2c(c1C(=O)Nc1ccccc1)CCC2)c1ccc(Br)cc1 | inconclusive: 1.9 µM [inhibitor, partial curve, poor fit] |
| CCCOc1ccc(C(=O)NCC(c2ccco2)N(C)C)cc1 (stereo unspecified) | inconclusive: 37.9 µM [inhibitor, partial curve, poor fit] |
| COc1ccccc1NC(=O)C1=C(C)Nc2nc(-c3ccc(N(C)C)cc3)nn2C1c1ccncc1 (stereo unspecified) | inconclusive: 37.9 µM [inhibitor, partial curve, poor fit] |
| COc1ccccc1CNC(=O)CSc1ccc(-c2sc(-c3ccccc3)nc2C)nn1 | inactive |
| CN(C)S(=O)(=O)N1CCC(Oc2cccc(C(=O)N3CCSCC3)c2)CC1 | inactive |
| CN(C(=O)CSc1nnc(COc2ccccc2)o1)c1ccccc1 | inactive |
| CCOC(=O)N1CCN(C(=O)c2ccc3c(c2)sc2nc(-c4ccc(OC)cc4)cn23)CC1 | inconclusive: 16.9 µM [inhibitor, partial curve] |
| O=C(OCC(=O)N1CCCCCC1)c1ccc(Cl)c(S(=O)(=O)N2CCCC2)c1 | inconclusive: 21.3 µM [inhibitor, partial curve] |
| CC(C)COc1ccc(C(=O)Nc2sc3c(c2C(=O)O)CC(C)(C)OC3)cc1 | active: 21.3 µM |
| COc1ccc(-c2nc3ccccn3c2CN2CCN(c3ccccc3F)CC2)cc1 | active: 16.9 µM |
| COc1ccc(CCNC(=O)C2CCC(=O)N2S(=O)(=O)c2ccc(C)cc2)cc1 (stereo unspecified) | inactive |
| Cc1ccc(-c2nn(CC(=O)NCc3ccccc3)c3c2cnc2ccc(F)cc23)cc1C | inactive |

| SMILES | Potency |
| --- | --- |
| COc1ccc(OC)c(-n2c3c(cc(-c4nc(-c5ccc(Cl)cc5)cs4)c2=O)C(=O)CC(C)(C)C3)c1 | inactive |
| Cc1c(NC(=O)C(C)(C)Oc2ccc(Cl)cc2)cccc1-c1nc2ccccc2o1 | inconclusive: 9.53 µM [inhibitor, partial curve, poor fit] |
| O=C(CN(C(=O)CSc1nc2ccccc2o1)c1ccccc1F)NC1CCCCC1 | inactive |
| CCOc1cccc(C(=O)Nc2cc(C)c(O)c(-c3nc4ncccc4o3)c2)c1 | inconclusive: 5.36 µM [inhibitor, partial curve] |
| Cc1ccc(CSc2nnc(-c3ccco3)o2)cc1 | active: 12 µM |
| COC(=O)c1ccccc1NC(=O)c1nc(-c2ccc(Cl)cc2)n2c1CCCCC2 | inactive |
| CSc1ccc(NC(=O)CSc2nc3[nH]c(=O)cc(O)c3s2)cc1 | inconclusive: 26.9 µM [inhibitor, single point] |
| COc1cccc(Cc2nc3ccccc3nc2SCC(=O)N2CCCc3ccccc32)c1 | inactive |
| Cc1ccccc1-c1cc(-c2ccccc2O)n[nH]1 | inconclusive: 0.849 µM [inhibitor, partial curve, poor fit] |
| COc1cccc(C(=O)NOCc2ccccc2)c1OC | active: 26.9 µM |
| CN(C(=O)Nc1cnc2ccccc2c1)c1ccccc1 | inconclusive: 26.9 µM [inhibitor, single point] |
| NS(=O)(=O)c1ccc(CCNC(=O)COC(=O)CC(c2ccccc2)c2ccccc2)cc1 | inactive |
| CCOc1nc(NCc2ccco2)nc(Nc2ccc(OC)cc2)n1 | inconclusive: 26.9 µM [inhibitor, partial curve, poor fit] |
| CCOc1ccc(/C=N/NC(=O)NC23CC4CC(CC(C4)C2)C3)cc1O | inconclusive: 26.9 µM [inhibitor, single point] |
| O=C(CCN1C(=O)/C(=C\c2ccccc2)SC1=S)Nc1ccc(C(=O)O)cc1 | inconclusive: 30.1 µM [inhibitor, single point] |
| O=C(C1=C[C@H](c2ccc3c(c2)OCO3)C[C@H](OCc2ccc(CO)cc2)O1)N1CCN(Cc2ccc3c(c2)OCO3)CC1 | inactive |
| CC(C)c1ccc(C(=O)NC(=S)NCc2cccnc2)cc1 | inconclusive: 19 µM [inhibitor, partial curve, poor fit] |
| COC(=O)c1ccccc1NC(=O)c1cccc(COc2ccccc2Cl)c1 | active: 16.9 µM |
| CC(=O)c1ccc(NC(=O)C2CCN(S(=O)(=O)c3cccs3)CC2)cc1 | inconclusive: 26.9 µM [inhibitor, partial curve] |
| Cc1ccc(C(=O)NC(=S)Nc2cc(-c3nc4ccccc4s3)ccc2C)cc1 | active: 9.53 µM |
| Cc1ccc(-n2c(=O)c3c(c4cc(C)ccc4n3C)n(CC(=O)c3ccc(Cl)cc3)c2=O)cc1 | inactive |
| O=C(O)CSc1nc2ccc(NC(=O)COc3ccc(Cl)cc3)cc2s1 | inconclusive: 30.1 µM [inhibitor, single point] |
| Cc1ccc(-n2cc(CNCCc3ncc(C)[nH]3)c(-c3ccc(F)cc3)n2)cc1 | active: 26.9 µM |
